{"source": "paper PMC10668032", "note": "This is one part of the list. At the low end of the ranking, values are background and their order means little.", "data": [{"molecular_target": "SIX1 homeodomain (reference allele) (UniProt Q15475)", "assay": "universal protein binding microarray", "settings": "Universal all-10-mer PBM (8x60K, AMADID 030236), 300 nM GST-tagged protein, Alexa Fluor 488 anti-GST; buffer, salt, pH and temperature not stated; high values mean tight binding; most listed sequences are background and not binding sites; double strand, one strand shown", "units": {"binding signal": "E-score"}, "values": [{"sequence": "GCCAAGGA", "binding signal": -0.0931}, {"sequence": "GCATCAGA", "binding signal": 0.127}, {"sequence": "AATAAGGA", "binding signal": -0.0537}, {"sequence": "GGTGATTA", "binding signal": 0.0864}, {"sequence": "GTCATTCA", "binding signal": -0.14}, {"sequence": "ATGATGAG", "binding signal": 0.0283}, {"sequence": "ACCTTTTC", "binding signal": -0.125}, {"sequence": "CGGAGTAG", "binding signal": -0.00732}, {"sequence": "CAGAGGCC", "binding signal": -0.181}, {"sequence": "ACGGACGA", "binding signal": -0.163}, {"sequence": "ACCTGTTC", "binding signal": -0.00271}, {"sequence": "ACTTAGGC", "binding signal": -0.336}, {"sequence": "CCGATGAC", "binding signal": 0.0434}, {"sequence": "TAATCAAA", "binding signal": -0.108}, {"sequence": "GCATCGGC", "binding signal": 0.0576}, {"sequence": "GCTTATAC", "binding signal": 0.148}, {"sequence": "CCTGAGAA", "binding signal": 0.0475}, {"sequence": "GGCGGACA", "binding signal": -0.0814}, {"sequence": "CATTAGTC", "binding signal": -0.0573}, {"sequence": "GTCTTCGA", "binding signal": -0.0922}, {"sequence": "AGCTATAT", "binding signal": 0.2}, {"sequence": "ACGCACGA", "binding signal": 0.116}, {"sequence": "GACGATCC", "binding signal": 0.387}, {"sequence": "GTGGGGAA", "binding signal": -0.0528}, {"sequence": "ATCGCAGC", "binding signal": 0.124}, {"sequence": "GCATGTCA", "binding signal": -0.184}, {"sequence": "CCTGAAGA", "binding signal": -0.168}, {"sequence": "GCCTCAGC", "binding signal": -0.104}, {"sequence": "ACACCCGC", "binding signal": 0.27}, {"sequence": "CGACAGAC", "binding signal": -0.0668}, {"sequence": "CTCCGTTC", "binding signal": -0.0381}, {"sequence": "CAGCAATC", "binding signal": -0.0328}, {"sequence": "CGGTGGAC", "binding signal": -0.102}, {"sequence": "CGTACGTA", "binding signal": -0.0338}, {"sequence": "GCCTGCCC", "binding signal": -0.0419}, {"sequence": "CCCCGGCC", "binding signal": -0.0832}, {"sequence": "TGGCACCA", "binding signal": -0.203}, {"sequence": "ACAGATTC", "binding signal": -0.00829}, {"sequence": "CAATCGCG", "binding signal": 0.0369}, {"sequence": "AAGGGCCC", "binding signal": -0.244}, {"sequence": "CAACGTTG", "binding signal": -0.218}, {"sequence": "CAATAAAG", "binding signal": -0.00643}, {"sequence": "AGGATTAG", "binding signal": 0.108}, {"sequence": "ATACGGTG", "binding signal": 0.328}, {"sequence": "AGTAAGGG", "binding signal": 0.106}, {"sequence": "CAGTCACA", "binding signal": 0.0493}, {"sequence": "CCAACGTA", "binding signal": -0.0464}, {"sequence": "ATATAAAA", "binding signal": 0.0381}, {"sequence": "ATACAAGC", "binding signal": 0.0789}, {"sequence": "CCTATCCG", "binding signal": 0.316}, {"sequence": "CAACTGGG", "binding signal": -0.0249}, {"sequence": "AACGAATG", "binding signal": -0.26}, {"sequence": "CCAACGAG", "binding signal": -0.14}, {"sequence": "ACAGAGAG", "binding signal": -0.208}, {"sequence": "GCGCCATA", "binding signal": 0.00511}, {"sequence": "AATGCGCG", "binding signal": 0.129}, {"sequence": "CGCACCAC", "binding signal": -0.0969}, {"sequence": "GTAAATGA", "binding signal": 0.0671}, {"sequence": "CCATGCGA", "binding signal": 0.091}, {"sequence": "ACCTTTGG", "binding signal": -0.12}, {"sequence": "GCAGATGA", "binding signal": 0.0415}, {"sequence": "ACTGGAGA", "binding signal": 0.0225}, {"sequence": "AAGGTCTG", "binding signal": -0.238}, {"sequence": "CTTAAGCC", "binding signal": -0.17}, {"sequence": "CTCACAGA", "binding signal": -0.0163}, {"sequence": "GAGGCTGC", "binding signal": -0.133}, {"sequence": "ATACGCCG", "binding signal": 0.277}, {"sequence": "CGGGTGTC", "binding signal": 0.439}, {"sequence": "CTATCCAG", "binding signal": 0.199}, {"sequence": "ACATTATA", "binding signal": 0.0123}, {"sequence": "CTTGTCCA", "binding signal": -0.151}, {"sequence": "CCTTACGA", "binding signal": -0.16}, {"sequence": "CCGGCCGA", "binding signal": 0.104}, {"sequence": "CAATGCCA", "binding signal": -0.191}, {"sequence": "CTAGTTGA", "binding signal": -0.0577}, {"sequence": "TTCGTCAA", "binding signal": -0.157}, {"sequence": "GAGCACGA", "binding signal": 0.0635}, {"sequence": "CCCAAGAA", "binding signal": 0.0576}, {"sequence": "TAAAGTAA", "binding signal": -0.137}, {"sequence": "ACGTCTCA", "binding signal": 0.322}, {"sequence": "CTCGTCTC", "binding signal": 0.129}, {"sequence": "AGTTGCGC", "binding signal": -0.296}, {"sequence": "ACTCTCCG", "binding signal": -0.0765}, {"sequence": "TCCCGTAA", "binding signal": -0.0257}, {"sequence": "ATATTGCC", "binding signal": 0.135}, {"sequence": "ACAGTTCC", "binding signal": -0.209}, {"sequence": "CTCACACC", "binding signal": 0.107}, {"sequence": "CGATTCAC", "binding signal": 0.0285}, {"sequence": "AAAGTTAA", "binding signal": -0.084}, {"sequence": "GGAGCGAC", "binding signal": -0.149}, {"sequence": "CTAATGGA", "binding signal": -0.0426}, {"sequence": "CTTAATTA", "binding signal": -0.0491}, {"sequence": "ATTCTGTG", "binding signal": -0.0636}, {"sequence": "ACCACCGG", "binding signal": 0.0147}, {"sequence": "GCTTGACA", "binding signal": -0.0185}, {"sequence": "AGAATTTA", "binding signal": -0.19}, {"sequence": "CAGTAGAG", "binding signal": -0.014}, {"sequence": "AACCAAAG", "binding signal": -0.197}, {"sequence": "AAAGCAGA", "binding signal": -0.124}, {"sequence": "AAAAAGGG", "binding signal": -0.0103}, {"sequence": "GTGGTAAA", "binding signal": -0.213}, {"sequence": "CCACCGTA", "binding signal": 0.0422}, {"sequence": "ACACCCAA", "binding signal": 0.331}, {"sequence": "ACAACGCG", "binding signal": -0.0711}, {"sequence": "AAGGGAAG", "binding signal": 0.0184}, {"sequence": "CAACATCC", "binding signal": -0.0548}, {"sequence": "GGCCCCTA", "binding signal": -0.0821}, {"sequence": "AAATTTGT", "binding signal": -0.192}, {"sequence": "GTCAGCCA", "binding signal": -0.129}, {"sequence": "CTAACTCA", "binding signal": -0.249}, {"sequence": "TATTAACA", "binding signal": 0.124}, {"sequence": "AAGGGTTC", "binding signal": 0.0168}, {"sequence": "GCGCAAAA", "binding signal": 0.101}, {"sequence": "AGATATCC", "binding signal": 0.442}, {"sequence": "AGGCTTGA", "binding signal": -0.135}, {"sequence": "TACCATCA", "binding signal": 0.111}, {"sequence": "CCAAATTC", "binding signal": -0.146}, {"sequence": "CGCATATC", "binding signal": 0.414}, {"sequence": "ATATGGGA", "binding signal": 0.319}, {"sequence": "CAGCGAGC", "binding signal": 0.0528}, {"sequence": "ACACATCA", "binding signal": -0.154}, {"sequence": "CTTCGTAC", "binding signal": -0.139}, {"sequence": "CGGACCAG", "binding signal": -0.149}, {"sequence": "AACCAAGA", "binding signal": 0.0429}, {"sequence": "ATACTGCG", "binding signal": 0.185}, {"sequence": "CCACACAA", "binding signal": -0.233}, {"sequence": "CGCGAGTC", "binding signal": -0.0698}, {"sequence": "CGTGCTGC", "binding signal": -0.329}, {"sequence": "ATCAGAGC", "binding signal": 0.0546}, {"sequence": "CGGACTAA", "binding signal": -0.123}, {"sequence": "CCCGACTC", "binding signal": -0.016}, {"sequence": "GGTGCGCA", "binding signal": -0.0878}, {"sequence": "CATAGGGG", "binding signal": 0.112}, {"sequence": "ATTCATGG", "binding signal": -0.197}, {"sequence": "ACAGCGGT", "binding signal": -0.149}, {"sequence": "AAGGTCAG", "binding signal": -0.163}, {"sequence": "GCGCTTAC", "binding signal": -0.117}, {"sequence": "ACCCTCAT", "binding signal": -0.0636}, {"sequence": "AGCTGCCG", "binding signal": -0.134}, {"sequence": "CCTGCTAG", "binding signal": -0.173}, {"sequence": "CATGCGCA", "binding signal": -0.075}, {"sequence": "ATCCTACG", "binding signal": 0.143}, {"sequence": "CAAGATAA", "binding signal": 0.043}, {"sequence": "CTAGACCA", "binding signal": 0.0647}, {"sequence": "ACCGCAAA", "binding signal": -0.056}, {"sequence": "ACATCAAG", "binding signal": -0.223}, {"sequence": "AACCTGTG", "binding signal": -0.243}, {"sequence": "CCGAGTCA", "binding signal": -0.0418}, {"sequence": "GAAACGCA", "binding signal": -0.225}, {"sequence": "AGTGAGTA", "binding signal": 0.128}, {"sequence": "AAAACCGC", "binding signal": -0.123}, {"sequence": "GGATCGTA", "binding signal": 0.383}, {"sequence": "GGGTGACA", "binding signal": 0.0532}, {"sequence": "AATTCGTC", "binding signal": -0.0703}, {"sequence": "CTTCAAAG", "binding signal": -0.164}, {"sequence": "GCAACAAA", "binding signal": -0.0851}, {"sequence": "TAGACACA", "binding signal": -0.00698}, {"sequence": "CTTTTCAA", "binding signal": -0.249}, {"sequence": "AAAGGTGC", "binding signal": -0.197}, {"sequence": "AGGGGTCA", "binding signal": 0.119}, {"sequence": "ACGTTCTC", "binding signal": -0.103}, {"sequence": "GACGATCA", "binding signal": 0.0136}, {"sequence": "CGCTAAAC", "binding signal": -0.109}, {"sequence": "TATAATCA", "binding signal": 0.111}, {"sequence": "AAATGACA", "binding signal": -0.094}, {"sequence": "GTAAGCCA", "binding signal": -0.0874}, {"sequence": "CCAGTTCC", "binding signal": -0.0447}, {"sequence": "GTGATCCA", "binding signal": 0.377}, {"sequence": "AGCCCAAA", "binding signal": -0.11}, {"sequence": "CGTCGGAA", "binding signal": -0.136}, {"sequence": "ACGTAAGT", "binding signal": -0.124}, {"sequence": "CAATAAGG", "binding signal": -0.0884}]}]}
